# Experimental data from PubChem BioAssay (NCATS).
# Values joined by “and” are separate entries in the source; they are usually repeats but may differ in a detail not shown here. Equal entries are not always repeated. The inconclusive results got no clear call from the source; some entries with a clear call stand among them for comparison. For some of these results: Potencies beside an inconclusive call are fits to weak or partial responses and may not hold up. More than one record can exist for a structure, and the calls need not agree. Active and inactive are the calls of the source. Unless noted, calls follow the shape of the dose curve; as a rule, active = well fitted curve in the direction sought with a large enough effect; inconclusive = small, poorly fitted or top-dose-only effect, or another doubt; inactive = no such curve, though single readings can be large; an effect the other way counts as inactive or inconclusive.
# Assays:
# [1] = High Content Imaging Cell-Based qHTS for Inhibitors of the mTORC1 Signaling Pathway in MEF (Tsc2-/-, p53-/-) Cells (AID 2666); details: at 38.3 µM (top of the series);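 also: percent of cells scored positive for phospho-rpS6 Ser235/236 immunostaining by imaging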
# In short: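 MEF Tsc2-/- p53-/- (empty vector), DMEM/10% FBS; cpd 24 h 37 °C; PFA fix, Alexa-488 p-rpS6 S235/236 Ab, Hoechst; imaged; rapamycin-defined inhibition; % positive cells/well.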
# [2] = molecular target: ATPase family AAA domain-containing protein 5 (Homo sapiens) (UniProt Q96QE3); experiment: Validation screen for small molecules that inhibit ELG1-dependent DNA repair in human embryonic kidney (HEK293T) cells expressing luciferase-tagged ELG1 (AID 493107); details: HEK293T ELG1-luciferase level, luminescence, 5-fluorouridine co-treatment, 16 h; activity change, negative = decrease: at 46.1 µM (top of the series);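 also: cells co-treated with the DNA-damaging agent 5-fluorouridine alongside compound; % is scaled to controls: 0 for no effect and ±100 for the full control effect; inhibitors lower the ELG1-luciferase luminescence signal; nearly all actives have a fitted effect of over 70% in size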
# In short: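 ELG1-luciferase HEK293T reporter; 5-fluorouridine + compound/DMSO, 16 hr, 37 °C, 5% CO2; ONE-Glo 30 min RT; luminescence read, qHTS format.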
# [3] = qHTS for Inhibitors of ATXN expression: Validation of Cytotoxic Assay (AID 588349); also: potency is read from the fitted curve at half-maximal effect
# In short: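 Cytotoxicity counter-screen: HEK293 cells exposed to compound titrations, 72 hr, 37 degrees C. Read-out is intracellular ATP (CellTiter Glo luminescence) as a viability measure.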
# [4] = molecular target: Glucagon-like peptide 1 receptor (Homo sapiens) (UniProt P43220); experiment: qHTS of GLP-1 Receptor Agonists: LOPAC Validation (AID 624148); also: potency is read from the fitted curve at half-maximal effect
# In short: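 HEK293 cells stably co-expressing GLP-1R and a cAMP-responsive luciferase reporter, plated 12 hours before compound, then incubated 4-6 hr at 37 deg C. Luminescence read 12 min after detection reagent.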
# [5] = Cell Viability qHTS for small molecule stabilizers of the endoplasmic reticulum resident proteome (AID 1508629); details: cell viability counter-screen, 100 nM thapsigargin for final 4 h;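 also: compound exposure about 46 h in total before the viability read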; also: potency is read from the fitted curve at half-maximal effect;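 as to max response: human SH-SY5Y neuroblastoma cells carrying the GLuc-SERCaMP reporter; % is scaled to controls: 0 for no effect and ±100 for the full control effect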
# [6] = Primary qHTS for small molecule stabilizers of the endoplasmic reticulum resident proteome: Secreted ER Calcium Modulated Protein (SERCaMP) assay (AID 1508630); details: SH-SY5Y GLuc-SERCaMP (Gaussia luciferase released on ER calcium loss) secretion, thapsigargin, luminescence; activity change, negative = inhibition: at 38.4 µM (top of the series) unless noted; also: potency is read from the fitted curve at half-maximal effect
# In short: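 The SH-SY5Y reporter protocol was run at 3 concentrations up to 38.3 uM (primary) or 11 concentrations (follow-up): 16 h compound, 100 nM thapsigargin for 4 h, then extracellular luciferase luminescence.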
# Papain (Carica papaya) = Papain (Carica papaya) (UniProt P00784); experiment: Primary qHTS assay for inhibitors of the protease papain (AID 1645873);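 also: papain turnover of Z-FR-AMC read as the AMC fluorescence gain over 10 min; potency is read from the fitted curve at half-maximal effect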
# [7] = molecular target: 3',5'-cyclic-AMP phosphodiesterase 4B (Homo sapiens) (UniProt Q07343); experiment: qHTS Assay for Inhibitors of PDE-IV (AID 607; active = well fitted activation curve with a large enough effect in the main read-out, with a control signal flat, not every such curve was filed as active; inconclusive = small, poorly fitted or top-dose-only effect, or effect the other way, or a change in a side signal; also: potency is read from the fitted curve at half-maximal effect; as to activation (PDE inhibition): % of control where 0% means no effect); details: HEK293 ACTOne CNG channel cells, membrane potential fluorescence; activation (PDE inhibition): at 22.9 µM (top of the series)
# In short: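 ACTOne HEK293 cells carry a modified cAMP-gated CNG channel and express endogenous PDE4; plated 1000 cells/well, compounds up to 22.9 uM final. Membrane-potential dye fluorescence (ex 535/em 590) was read; parental cells received 10 uM forskolin + 100 uM RO 20-1724.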
# [8] = Confirmatory qHTS for small molecule stabilizers of the endoplasmic reticulum resident proteome: Secreted ER Calcium Modulated Protein (SERCaMP) assay (AID 1508628); also: nearly all actives have a fitted effect of over 40% in size; also: potency is read from the fitted curve at half-maximal effect
# In short: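 GLuc-SERCaMP-expressing SH-SY5Y cells, pretreated 16 h with compound, are challenged with thapsigargin to empty ER calcium stores; after 4 h, coelenterazine is added directly to the medium and luminescence is imaged.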
# [9] = AP1 Signaling Pathway (AID 357; active = well fitted curve in either direction with a large enough effect, not every such curve was filed as active; inconclusive = small, poorly fitted or top-dose-only effect, or another doubt;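 also: ME-180 reporter cells stimulated with EGF at its EC50 level; top concentration of the series differs between compounds; % is scaled to controls: 0 for no effect and ±100 for the full control effect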); details: ME-180 AP-1-bla reporter, EGF-induced, beta-lactamase ratio, 5 h; at 7.69 µM (top of the series) unless noted
# In short: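 AP-1-bla ME-180 cells, Opti-MEM + 0.5% dialyzed FBS, plated overnight 37 °C. Cpd titration + EC50 EGF, 5 h 37 °C. CCF4 2.5 h RT; ex 405, em 460/530 ratio → %activity, AC50.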
# [10] = NFAT Signaling Pathway (AID 444; active = well fitted curve in either direction with a large enough effect, not every such curve was filed as active; inconclusive = small, poorly fitted or top-dose-only effect, or another doubt;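 also: carbachol stimulus at about its EC50 of 1 µM final; % is scaled to controls: 0 for no effect and ±100 for the full control effect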); details: Jurkat NFAT-bla M1, carbachol, beta-lactamase ratio, 5 h; at 7.69 µM (top of the series) unless noted
# In short: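 Jurkat cells with NFAT-driven β-lactamase reporter and co-expressed M1 receptor, stimulated with carbachol (final 1 uM, ~EC50), compound titration, 5 h at 37 °C. CCF4 loaded 1 h at RT; 460/530 nm ratio gave %activity and AC50.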
# [11] = Stat Signaling Pathway (AID 446; active = well fitted curve in either direction with a large enough effect, not every such curve was filed as active; inconclusive = small, poorly fitted or top-dose-only effect, or another doubt;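 also: ME-180 cervical cancer cells given 40 pM IL-6 alongside compound; SIE-controlled beta-lactamase reporter measured as 460/530 nm FRET emission ratio; top concentration of the series differs between compounds; % is scaled to controls: 0 for no effect and ±100 for the full control effect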); details: ME-180 SIE beta-lactamase reporter, IL-6 stimulated, 5 h; at 7.69 µM (top of the series) unless noted
# In short: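 Compound effects on IL-6-induced STAT reporter activity were measured in ME-180 cells. After overnight culture, cells were co-treated with 40 pM IL-6 for 5 hrs before beta-lactamase substrate loading at room temperature.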
# [12] = qHTS Assay for Identification of Small Molecule Agonists for Hypoxia Response Element Signaling Pathway (AID 914; active = well fitted activation curve with a large enough effect in the signal ratio, with a control signal flat, not every such curve was filed as active; inconclusive = small, poorly fitted or top-dose-only effect, or effect the other way, or a change in a side signal; the % refers to the signal ratio; also: potency is read from the fitted curve at half-maximal effect); details: ME-180 (cervical carcinoma) HRE-bla reporter, beta-lactamase ratio, CoCl2, 17 h; activation: active compounds read high
# In short: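 HRE-bla ME-180 assay for agonist-like enhancement of an EC50 CoCl2 stimulus: 17 h at 37 degrees Celsius, CCF4 for 2.5 h, ratiometric 460/530 nm signal converted to %Activity and fitted to AC50.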
# [13] = qHTS Assay for Lipid Storage Modulators (AID 1519; calls by dose curve; also: potency is read from the fitted curve at half-maximal effect); details: Drosophila S3 cells, BODIPY lipid droplet/cell ratio, laser cytometry, cells loaded with oleic acid; activity change, negative = inhibition: at 57.5 µM (top of the series) unless noted
# In short: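 Cells seeded at 5,000 per well were treated with compounds over a concentration series and loaded with oleic acid (400 uM, as added). Lipid droplet fluorescence (488 nm excitation, 500-530 nm channel) was read by laser-scanning cytometry and normalized to 20 uM Triacsin C.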
# [14] = molecular target: Cytochrome P450 1A2 (Homo sapiens) (UniProt P05177); experiment: p450-cyp1a2 (AID 410; calls by dose curve; also: potency is read from the fitted curve at half-maximal effect)
# In short: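 20nM CYP1A2, 100uM Luciferin-ME (=Km), 100mM KPO4; cpd 10 min RT; +NADPH regen, 60 min RT; stop/detect 20 min; luminescence. Normalized to furafylline 57 uM = full inhibition.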
# [15] = molecular target: Dual specificity protein kinase CLK4 (Homo sapiens) (UniProt Q9HAZ1); experiment: qHTS Assay for Inhibitors of CDC-like Kinase 4 (ADP-Glo Assay) (AID 1771); also: % is scaled to controls: 0 for no effect and ±100 for the full control effect; nearly all actives have a fitted effect of over 70% in size
# In short: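 25 nM Clk4, 100 uM RS peptide, 1 uM ATP (final); 2 mM MgCl2, 0.5 mM EGTA, 2.5 mM DTT, 0.01% Triton X-100; 1 hr RT. ADP-Glo readout: ATP depletion 45 min, conversion/luciferase 30 min, luminescence.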
# [16] = molecular target: Dual specificity protein kinase CLK4 (Homo sapiens) (UniProt Q9HAZ1); experiment: qHTS Assay for Inhibitors of CDC-like Kinase 4 (Kinase-Glo Assay) (AID 1770); also: % is scaled to controls: 0 for no effect and ±100 for the full control effect; nearly all actives have a fitted effect of over 65% in size
# In short: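 Inhibition was judged from remaining ATP, measured by Ultra-Glo luciferase bioluminescence after Clk4 (25 nM) had acted on RS peptide at 1 uM ATP for 4.5 hours, room temperature.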
# [17] = molecular target: Ubiquitin carboxyl-terminal hydrolase 1 (Homo sapiens) (UniProt O94782); experiment: Inhibitors of USP1/UAF1: Pilot qHTS (AID 504865);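 also: rhodamine fluorescence freed from ubiquitin-rhodamine substrate followed over time; potency is read from the fitted curve at half-maximal effect; nearly all actives have a fitted effect of over 35% in size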
# In short: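 Kinetic fluorescence assay: 1nM USP1/UAF1, 15 min compound preincubation, then 150nM Ub-Rho; 480/540 nm.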
# Tags tell the direction and shape of the fitted curve or compound fluorescence and quenching.
# Chain of UniProt Q07343 (Q07343 whole entry, looked up): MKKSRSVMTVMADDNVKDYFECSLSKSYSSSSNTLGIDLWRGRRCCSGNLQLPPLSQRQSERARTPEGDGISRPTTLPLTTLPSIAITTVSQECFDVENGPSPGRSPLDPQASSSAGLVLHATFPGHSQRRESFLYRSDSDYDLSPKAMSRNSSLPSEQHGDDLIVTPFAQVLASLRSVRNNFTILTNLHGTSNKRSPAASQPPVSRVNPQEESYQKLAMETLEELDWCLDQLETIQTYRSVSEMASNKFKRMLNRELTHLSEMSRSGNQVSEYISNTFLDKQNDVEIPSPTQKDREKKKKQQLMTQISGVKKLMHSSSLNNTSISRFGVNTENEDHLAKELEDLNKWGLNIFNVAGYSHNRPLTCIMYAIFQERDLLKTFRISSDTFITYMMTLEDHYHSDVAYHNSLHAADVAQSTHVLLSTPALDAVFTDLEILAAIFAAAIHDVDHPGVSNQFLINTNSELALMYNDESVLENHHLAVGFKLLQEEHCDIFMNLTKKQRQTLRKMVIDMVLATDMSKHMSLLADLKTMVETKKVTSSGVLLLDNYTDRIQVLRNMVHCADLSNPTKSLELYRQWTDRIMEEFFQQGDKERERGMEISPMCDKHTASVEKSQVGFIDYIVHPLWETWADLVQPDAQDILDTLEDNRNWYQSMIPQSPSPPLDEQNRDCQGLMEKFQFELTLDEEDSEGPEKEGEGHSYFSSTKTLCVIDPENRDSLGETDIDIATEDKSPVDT
# Chain of UniProt Q9HAZ1 (Q9HAZ1 whole entry, looked up): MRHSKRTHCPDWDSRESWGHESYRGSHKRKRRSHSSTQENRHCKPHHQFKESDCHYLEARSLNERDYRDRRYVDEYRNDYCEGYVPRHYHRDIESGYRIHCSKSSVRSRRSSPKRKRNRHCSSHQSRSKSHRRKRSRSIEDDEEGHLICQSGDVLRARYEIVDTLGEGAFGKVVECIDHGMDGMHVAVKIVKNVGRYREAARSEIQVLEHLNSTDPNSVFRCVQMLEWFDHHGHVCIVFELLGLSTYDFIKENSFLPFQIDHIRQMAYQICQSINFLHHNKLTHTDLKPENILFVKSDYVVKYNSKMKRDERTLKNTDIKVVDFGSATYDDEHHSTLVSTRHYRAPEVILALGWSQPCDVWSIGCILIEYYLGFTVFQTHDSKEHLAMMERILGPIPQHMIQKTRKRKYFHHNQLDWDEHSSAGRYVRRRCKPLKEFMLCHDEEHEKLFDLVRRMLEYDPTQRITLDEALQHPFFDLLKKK
# Chain of UniProt O94782 (O94782 whole entry, looked up): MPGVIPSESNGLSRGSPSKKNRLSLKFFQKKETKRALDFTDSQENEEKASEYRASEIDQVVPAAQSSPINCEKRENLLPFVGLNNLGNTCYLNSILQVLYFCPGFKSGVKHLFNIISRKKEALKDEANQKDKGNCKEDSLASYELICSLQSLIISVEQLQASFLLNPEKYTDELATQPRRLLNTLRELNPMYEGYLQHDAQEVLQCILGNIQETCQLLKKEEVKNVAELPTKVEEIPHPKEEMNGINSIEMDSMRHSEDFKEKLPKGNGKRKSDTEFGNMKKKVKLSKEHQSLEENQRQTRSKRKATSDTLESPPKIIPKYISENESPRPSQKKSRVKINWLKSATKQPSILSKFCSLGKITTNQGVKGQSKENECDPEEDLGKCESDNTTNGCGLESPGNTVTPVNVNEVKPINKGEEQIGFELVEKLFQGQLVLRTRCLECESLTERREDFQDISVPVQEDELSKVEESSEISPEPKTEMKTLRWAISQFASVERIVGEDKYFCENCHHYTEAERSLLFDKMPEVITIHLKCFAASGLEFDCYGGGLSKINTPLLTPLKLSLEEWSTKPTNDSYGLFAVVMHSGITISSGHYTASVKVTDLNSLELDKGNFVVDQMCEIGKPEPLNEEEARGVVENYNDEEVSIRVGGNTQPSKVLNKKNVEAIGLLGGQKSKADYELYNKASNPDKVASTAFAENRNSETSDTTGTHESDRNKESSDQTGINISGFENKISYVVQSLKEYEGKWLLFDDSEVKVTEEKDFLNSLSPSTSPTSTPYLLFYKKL
# Chain of UniProt Q96QE3 (Q96QE3 whole entry, looked up, the tested form may be a part): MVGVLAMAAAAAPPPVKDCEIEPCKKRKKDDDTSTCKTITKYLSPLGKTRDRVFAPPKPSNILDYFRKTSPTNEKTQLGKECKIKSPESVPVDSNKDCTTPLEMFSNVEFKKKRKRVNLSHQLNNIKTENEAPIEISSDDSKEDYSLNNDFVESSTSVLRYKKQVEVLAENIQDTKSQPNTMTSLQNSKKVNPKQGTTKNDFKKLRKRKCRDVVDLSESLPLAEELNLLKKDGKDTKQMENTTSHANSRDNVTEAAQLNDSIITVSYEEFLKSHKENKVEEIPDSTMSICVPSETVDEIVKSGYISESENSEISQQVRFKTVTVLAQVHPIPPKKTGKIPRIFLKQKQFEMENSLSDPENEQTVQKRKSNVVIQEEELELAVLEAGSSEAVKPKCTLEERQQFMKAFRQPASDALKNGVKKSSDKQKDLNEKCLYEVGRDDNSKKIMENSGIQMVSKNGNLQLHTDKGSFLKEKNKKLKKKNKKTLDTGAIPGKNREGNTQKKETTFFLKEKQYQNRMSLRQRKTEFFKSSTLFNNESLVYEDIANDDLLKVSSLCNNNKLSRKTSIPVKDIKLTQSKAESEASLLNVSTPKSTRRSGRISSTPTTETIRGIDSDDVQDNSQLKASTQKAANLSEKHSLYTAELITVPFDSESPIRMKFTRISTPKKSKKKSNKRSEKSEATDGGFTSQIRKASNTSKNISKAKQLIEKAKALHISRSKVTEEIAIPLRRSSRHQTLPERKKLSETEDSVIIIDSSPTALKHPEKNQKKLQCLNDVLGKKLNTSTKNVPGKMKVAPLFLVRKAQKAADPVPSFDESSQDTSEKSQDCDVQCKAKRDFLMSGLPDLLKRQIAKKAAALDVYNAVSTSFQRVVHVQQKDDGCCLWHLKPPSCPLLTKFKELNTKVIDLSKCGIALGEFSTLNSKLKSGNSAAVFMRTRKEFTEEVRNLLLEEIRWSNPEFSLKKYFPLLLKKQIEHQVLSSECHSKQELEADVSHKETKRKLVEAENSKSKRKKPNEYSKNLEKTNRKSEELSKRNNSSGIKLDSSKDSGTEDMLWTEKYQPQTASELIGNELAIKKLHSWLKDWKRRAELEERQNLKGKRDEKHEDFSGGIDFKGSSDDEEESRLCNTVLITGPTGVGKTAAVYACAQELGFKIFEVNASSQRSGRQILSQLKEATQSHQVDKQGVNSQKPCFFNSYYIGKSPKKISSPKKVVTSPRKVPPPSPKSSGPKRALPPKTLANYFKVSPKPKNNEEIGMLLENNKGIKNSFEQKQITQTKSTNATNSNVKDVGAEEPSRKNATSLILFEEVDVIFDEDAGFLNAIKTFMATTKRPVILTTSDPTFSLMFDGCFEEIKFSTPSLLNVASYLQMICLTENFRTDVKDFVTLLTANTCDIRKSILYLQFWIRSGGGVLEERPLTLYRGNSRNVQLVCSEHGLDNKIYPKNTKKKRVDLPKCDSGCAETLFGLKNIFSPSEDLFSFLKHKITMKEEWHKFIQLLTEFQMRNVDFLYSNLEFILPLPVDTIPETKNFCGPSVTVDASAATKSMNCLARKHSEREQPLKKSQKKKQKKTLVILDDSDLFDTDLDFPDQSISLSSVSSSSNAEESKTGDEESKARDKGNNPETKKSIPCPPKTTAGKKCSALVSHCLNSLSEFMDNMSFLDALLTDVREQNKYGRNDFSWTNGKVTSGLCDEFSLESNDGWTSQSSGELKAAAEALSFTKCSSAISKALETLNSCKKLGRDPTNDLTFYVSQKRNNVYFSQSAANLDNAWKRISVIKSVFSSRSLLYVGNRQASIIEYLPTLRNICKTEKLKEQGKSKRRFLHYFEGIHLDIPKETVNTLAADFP
# Chain of UniProt P43220 (P43220 whole entry, looked up): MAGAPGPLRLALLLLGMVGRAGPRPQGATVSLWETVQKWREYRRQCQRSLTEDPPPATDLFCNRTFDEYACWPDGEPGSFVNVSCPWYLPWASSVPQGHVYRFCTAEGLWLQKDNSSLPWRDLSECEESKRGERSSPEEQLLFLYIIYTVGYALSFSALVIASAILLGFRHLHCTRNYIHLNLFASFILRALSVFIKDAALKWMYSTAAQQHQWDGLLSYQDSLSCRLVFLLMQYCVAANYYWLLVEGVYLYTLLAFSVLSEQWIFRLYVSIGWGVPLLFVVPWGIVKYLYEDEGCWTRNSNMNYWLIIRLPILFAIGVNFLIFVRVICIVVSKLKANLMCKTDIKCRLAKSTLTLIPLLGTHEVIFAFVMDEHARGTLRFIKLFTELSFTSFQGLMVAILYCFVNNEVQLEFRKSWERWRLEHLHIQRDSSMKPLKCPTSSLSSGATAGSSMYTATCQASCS
# Chain of UniProt P05177 (P05177 whole entry, looked up): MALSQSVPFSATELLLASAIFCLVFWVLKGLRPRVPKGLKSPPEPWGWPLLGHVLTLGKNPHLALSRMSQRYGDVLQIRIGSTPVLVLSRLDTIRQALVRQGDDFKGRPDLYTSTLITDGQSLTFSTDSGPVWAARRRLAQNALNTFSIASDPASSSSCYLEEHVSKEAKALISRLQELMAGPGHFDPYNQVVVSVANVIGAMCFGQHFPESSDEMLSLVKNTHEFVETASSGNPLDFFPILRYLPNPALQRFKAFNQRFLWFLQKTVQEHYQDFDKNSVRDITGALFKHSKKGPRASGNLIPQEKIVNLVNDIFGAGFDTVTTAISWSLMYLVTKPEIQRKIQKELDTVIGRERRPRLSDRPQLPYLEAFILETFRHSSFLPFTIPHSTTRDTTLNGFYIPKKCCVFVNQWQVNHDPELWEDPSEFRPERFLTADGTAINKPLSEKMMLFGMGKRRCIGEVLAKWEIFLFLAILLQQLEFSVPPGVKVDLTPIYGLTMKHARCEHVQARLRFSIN
smiles,measurement,setting,value
C[N+]1(C)C2CC(OC(=O)[C@H](CO)c3ccccc3)CC1C1OC12 (some centres not stated),outcome,[1],inactive
same,"activity change, negative = decrease",[2],inconclusive: 30.7% [activator]
same,Potency,[3],"inconclusive: 3.55 µM [rising, partial curve, poor fit]"
same,Potency,[4],"inconclusive: 9.2 µM [activator, partial curve]"
same,max response,[5],inactive: 12%
same,Potency,[6],"inconclusive: 25.1 µM [inhibitor, partial curve, poor fit] and inconclusive: 11.2 µM [inhibitor, partial curve, poor fit]"
same,Potency,Papain (Carica papaya),active: 1.12 µM
O=c1c(CCc2ccccc2)nc2cnc(N3CCNCC3)nc2n1Cc1ccc(F)cc1,Potency,[7],"inconclusive: 5.01 µM [activator, partial curve]"
same,Potency,[8],inactive
same,Potency,[6],"inconclusive: 7.94 µM [inhibitor, partial curve, poor fit]"
CN1CCN(c2ncc3nc(-c4ccccc4)c(=O)n(CCc4ccccc4)c3n2)CC1,"activity change, negative = inhibition",[9],inconclusive: 38.3% [activator]
same,"activity change, negative = inhibition",[10],inconclusive: 89.7% [activator]
same,"activity, negative = inhibition",[11],inconclusive: 79.4% [activator]
same,Potency,[7],"inconclusive: 2.51 µM [activator, single point]"
same,Potency,[12],active: 3.16 µM
same,Potency,[5],"inconclusive: 7.08 µM [cytotoxic, partial curve, poor fit]"
same,Potency,[6],"inconclusive: 10 µM [inhibitor, partial curve, poor fit]"
COc1ccc(NC(=O)c2cc(OCCCN(C)C)nn2Cc2ccccc2)cc1,Potency,[8],"inconclusive: 8.91 µM [inhibitor, full curve]"
same,Potency,[6],"inconclusive: 6.31 µM [inhibitor, partial curve, poor fit]"
COCCn1c(=O)c(CCc2ccccc2)nc2cnc(N3CCN(C)CC3)nc21,Potency,[7],inactive
same,Potency,[8],"inconclusive: 31.6 µM [inhibitor, partial curve, poor fit]"
same,Potency,[6],"inconclusive: 31.6 µM [inhibitor, partial curve, poor fit]"
O=c1cnc2cnc(N3CCNCC3)nc2n1Cc1cccs1,"activity change, negative = inhibition",[9],inactive: -4.82%
same,"activity change, negative = inhibition",[10],inconclusive: -53.6% [inhibitor]
same,"activity change, negative = inhibition",[13],inconclusive: 8.65%
same,Potency,[5],"inconclusive: 0.224 µM [rising, full curve]"
same,Potency,[6],"inconclusive: 22.4 µM [inhibitor, partial curve, poor fit]"
Cc1ccc(-n2c(C)cc(/C=N/NC(=O)c3ccncc3)c2C)cc1C,max response,[5],inactive: 2.93%
COc1ccccc1-c1ccc2ncnc(N3CCN(C)CC3)c2c1,Potency,[14],active: 3.16 µM
same,Potency,[12],"inconclusive: 1.26 µM [inhibitor, partial curve]"
same,Potency,[13],"inconclusive: 39.8 µM [inhibitor, single point]"
same,Potency,[8],"inconclusive: 31.6 µM [inhibitor, partial curve, poor fit]"
same,Potency,[6],"inconclusive: 10 µM [inhibitor, partial curve, poor fit]"
Cc1nc2cnc(N3CCN(C)CC3)nc2n(-c2ccccc2)c1=O,Potency,[15],inactive
same,Potency,[8],"inconclusive: 44.7 µM [inhibitor, partial curve, poor fit]"
same,Potency,[6],"inconclusive: 31.6 µM [inhibitor, partial curve, poor fit]"
O=c1c(-c2ccc(Cl)cc2)nc2cnc(Oc3ccccc3)nc2n1C1CC1,"activity change, negative = inhibition",[13],inconclusive: -7.31%
same,Potency,[5],"inconclusive: 0.178 µM [rising, full curve]"
same,Potency,[6],"inconclusive: 10 µM [inhibitor, partial curve, poor fit]"
O=c1c(-c2ccccc2)nc2cnc(N3CCNCC3)nc2n1-c1ccccc1,"activity change, negative = inhibition",[9],inconclusive: 59.1% [activator]
same,"activity change, negative = inhibition",[10],inconclusive: 123% [activator]
same,"activity, negative = inhibition",[11],inconclusive: 114% [activator]
same,Potency,[12],active: 3.16 µM
same,Potency,[16],inactive
same,Potency,[5],"inconclusive: 0.0708 µM [rising, full curve]"
same,Potency,[6],"inconclusive: 22.4 µM [inhibitor, partial curve, poor fit]"
CN1CCN(c2ncnc3ccc(-c4ccccc4C#N)cc23)CC1,Potency,[7],"inconclusive: 10 µM [activator, partial curve]"
same,Potency,[17],"inconclusive: 50.1 µM [inhibitor, partial curve, poor fit]"
same,Potency,[8],inactive
same,Potency,[6],"inconclusive: 22.4 µM [inhibitor, partial curve, poor fit]"
Cn1cnnc1Sc1c([N+](=O)[O-])ncn1C,Potency,[6],"inconclusive: 31.6 µM [inhibitor, partial curve]"
COCC(=O)N1CCC2(CC1)CN(c1ccccc1)C2,Potency,[6],inactive
